This is one part of the list.
B1: chr1:165910223:165910324:+|3pUTR|ENSG00000143179|unk|FALSE|unique (ssRNA)
RNA: GGGAGUUCUACAGUCCGACGAUCCCAGCAUUUGGCCAACUCUGUAUCUGAACUUGAGCUUUCUAUGGAACAAACAAUGGUCUUAGUUUUUUAAGAGCCUCUGGGUCUCUGAUUCCAUGGAGAGUCAGGAGUAGAAUUAGUGGACAACAGAGGAUUGAGCAUCA
B2: chr3:180614007:180614920:-|three_prime_utr|ENSG00000284862|control|control|control (ssRNA)
RNA: GGGAGUUCUACAGUCCGACGAUCUUGUAAACACAAAAACAAAAAUAUACUUUAAAAUACAAAACGACCCAACACAUUUUAUCUAGUGGAAAGUGUAAAAACUUAGUGGUAAGUGUAAAAACUGAUAGUUUUAAAAAAAAAGGACAACAGAGGAUUGAGCAUCA
B3: chr7:44624349:44624495:+|CDS|ENSG00000105953|unk|FALSE|unique (ssRNA)
RNA: GGGAGUUCUACAGUCCGACGAUCAGGCCAUUGACGGCUUCCCAGACUGUUAAGACAUUUUCACAAAACAGACCAGCAGCAGCUAGGACAUUUCAACAGAUUCGGUGCUAUUCUGCACCUGUUGCUGCUGAGCCCUUUCUCAGUCAACAGAGGAUUGAGCAUCA
B4: chr5:6668475:6668576:+|3pUTR|ENSG00000145545|unk|total|mutant (ssRNA)
RNA: GGGAGUUCUACAGUCCGACGAUCAUUUUUUCUAAUUUCAAAUUUACCUCUUUUGGCUAUGUCUUGCCAAGUGUGUAUGAGACCCGACUUUACAACUGUCUUUGAUGGCAUUUUCAGAACAAUAAAUGUCACAAUCCCUUCUAUCAACAGAGGAUUGAGCAUCA
B5: chr1:235977234:235977335:-|3pUTR|ENSG00000116962|msi1|total|mutant (ssRNA)
RNA: GGGAGUUCUACAGUCCGACGAUCGUCUAAGACCCCCAUUAUAAUAUUCAUGCGCUGCUUUUUCAUCAAAACCUACCCUGUCCCCGAGAUCUAUGGGCAUUUGGUGGAUGAUAAUGAGCAGCCCCUCCCAGACCGAAUGUCAAUCAACAGAGGAUUGAGCAUCA
B6: chr12:95514132:95514176:+|3pUTR|ENSG00000111142|msi1_unk|total|mutant (ssRNA)
RNA: GGGAGUUCUACAGUCCGACGAUCCUUUUAAAUGCUAACUGUUUUUCCCCUUCCUGUCCCGGAAAAUGCUAUAAAGCUCAAAUCCGUCCGGAAUGACUUAUACGUUUUGUUUUGAAUACCUAAGAGAUACUUUUUGGAUAUUUACAACAGAGGAUUGAGCAUCA
B7: chr22:19969400:19969501:+|3pUTR|ENSG00000093010|msi1|FALSE|unique (ssRNA)
RNA: GGGAGUUCUACAGUCCGACGAUCUCCCCACUGGGCCUUGCUUACAGAAGAGGCAAUGGCUCAGACCAGCUCCCGCAUCCCUGUAGUUGCCUCCCUGGCCCAUGAGUGAGGAUGCAGUGCUGGUUUCUGCCCACCUACACCUAGCAACAGAGGAUUGAGCAUCA
B8: chr7:82949737:82949846:-|CDS|ENSG00000186472|unk|total|mutant (ssRNA)
RNA: GGGAGUUCUACAGUCCGACGAUCAAGUCCUCAAUAUCUGAGUGCCACAUCUCCACCCAAAGACAAGAAACGCCCAACACCUUCCGAGAUUGGUUAUUCAUCUCACCUCCGGGCAGAUUCCACAGUACAGCUGGCUCCUUCCCCCAACAGAGGAUUGAGCAUCA
B9: chr20:62294722:62294823:+|3pUTR|ENSG00000130703|unk|total|mutant (ssRNA)
RNA: GGGAGUUCUACAGUCCGACGAUCCGCACACCGCGUCCGUGUCUCCAGGGGGUUCCUUUCUUCUCACACGUCGCGUGUACCCACCGCACUCUUGUGUUUCUGUUUUUCCCAGUAUGCAUGUUUAAAACCGAAGUGACAAGAAUCCAACAGAGGAUUGAGCAUCA
B10: ENSG00000114439:stop:overlap|stop_codon|ENSG00000114439|stop_codon|NA|stop_codon (ssRNA)
RNA: GGGAGUUCUACAGUCCGACGAUCUUCAUUGUAAAACAUUGUGCUUUACCUACUACCCUAGCCUUGUCUUUACCGAGGGAUGCUAGUGAGUCCAAGUGGUGGAAAAUAUAGACUGCAAACAAGUGCUUGUUGCCCCACACGGCCCAACAGAGGAUUGAGCAUCA
B11: chr11:102867907:102868069:-|CDS|ENSG00000262406|control|control|control (ssRNA)
RNA: GGGAGUUCUACAGUCCGACGAUCACAAACUUGUUCCUCACUGCUGUUCACGAGAUUGGCCAUUCCUUAGGUCUUGGCCAUUCUAGUGAUCCAAAGGCCGUAAUGUUCCCCACCUACAAAUAUGUUGACAUCAACACAUUUCGCCAACAGAGGAUUGAGCAUCA
B12: chr17:81557321:81557422:-|3pUTR|ENSG00000182446|msi1|FALSE|unique (ssRNA)
RNA: GGGAGUUCUACAGUCCGACGAUCAGCAUUUCCCUUACUCUGAAGUUCCGGCAUUCACAUCAUUCAUGUUUUCUUUUGUCUUUUAGCUAAAGGAAAAGCAUUGGCGAUUUGUCUGAUUCUGGUUUUGAGUUACUCUUUGUUCAGCAACAGAGGAUUGAGCAUCA
B13: chr11:35231809:35232301:+|3pUTR|ENSG00000026508|msi1|FALSE|unique (ssRNA)
RNA: GGGAGUUCUACAGUCCGACGAUCACAACACCAAGAAUUGAUUUUGUAGCCAACAUUCAUUCAAUACUGUUAUAUCAGAGGAGUAGGAGAGAGGAAACAUUUGACUUAUCUGGAAAAGCAAAAUGUACUUAAGAAUAAGAAUAACAACAGAGGAUUGAGCAUCA
B14: chr6:105099394:105099495:-|3pUTR|ENSG00000112276|msi1|total|mutant (ssRNA)
RNA: GGGAGUUCUACAGUCCGACGAUCUCCGUUGAAUGAAGCUCAUUGAUUGGCCAUGCUGGUCAUGUCUAUUUUGCUUCAUCCACCCGAACCAACUUUGAGUCAGUCUCCUGUUACGUUAAAUGGCUAAGAAAAGUUCCAAAUGAACAACAGAGGAUUGAGCAUCA
B15: chr19:38730201:38730298:+|3pUTR|ENSG00000130402|msi1_unk|FALSE|overlapping (ssRNA)
RNA: GGGAGUUCUACAGUCCGACGAUCCAGAGAAUUACUAUUUACUUUAUUAACUUACGGAUUUAUUAUAUAAAUAUAUAUUCACCUAGCAACAUAUCUCUGCCGUCUCUCCUGCUCUCAUAAUGAAGACAUAGCCGAUUCUCUGCCCAACAGAGGAUUGAGCAUCA
B16: ENSG00000198589:be:win_6351|CDS|ENSG00000198589|bound_else_gene|NA|bound_elsewhere_windowed (ssRNA)
RNA: GGGAGUUCUACAGUCCGACGAUCGCUGCAUGGAAAAUGGCUGUUCACAGAGAUACGAUCAAUCUUUUCUCGUCGUUAUCUUUUGCAAAAUACAGCCCUGGAGAUCUUUAUGGCAAACAGAGUUGCUGUGAUGUUCAACUUCCCCAACAGAGGAUUGAGCAUCA
B17: chr9:128810308:128810409:+|3pUTR|ENSG00000107021|unk|FALSE|unique (ssRNA)
RNA: GGGAGUUCUACAGUCCGACGAUCUACAGAUUGAGCUGUAUGAAUUCAGCGGGUCUCACUCCAGAGGGUCAGAACGUUUGCUUUAGUUUUUUCAUCUGUUUUGUUCCUUGAGUCAGUGCUGUUGAUGACGAGUUGUCUUGAAUACAACAGAGGAUUGAGCAUCA
B18: chr11:43342853:43342954:+|3pUTR|ENSG00000166181|msi1|total|mutant (ssRNA)
RNA: GGGAGUUCUACAGUCCGACGAUCCCCGUUCUGCUGAUAAAGAUCAUCAGUUUUGAAAGGUUACUGAUUUUCCUCUUCCCUCUCCGUUUUUUACCCAAUAUAUGGAGAAGAGUAAUGGUCAAUCUUAACAUUUUGUUUUAAUUGCAACAGAGGAUUGAGCAUCA
B19: ENSG00000136451:be:win_251|CDS|ENSG00000136451|bound_else_gene|NA|bound_elsewhere_windowed (ssRNA)
RNA: GGGAGUUCUACAGUCCGACGAUCGGGACAGCUAUCACCUGAGGCGCCACGAAUCCUGCCACACAGGGAUCAAGUUGGUGUCCCGGCCAAAGAAAACCCCCACCACGGUGGUUCCCCUUAUCUCUACCAUCGCUGGGGACAGCACAACAGAGGAUUGAGCAUCA
B20: chr11:35230299:35231094:+|3pUTR|ENSG00000026508|msi1|total|mutant (ssRNA)
RNA: GGGAGUUCUACAGUCCGACGAUCGCCUGGGGAGUCCCUCAAAAGGUUAAAGGGAUUCCCAUCAUUGGAAUCUUAUCACCAGACCGGCAAGUUUAUGACCAAACAAGAGAGUACUGGCUUUAUCCUCUAACCUCAUAUUUUCUCCAACAGAGGAUUGAGCAUCA
B21: chr1:229632307:229632408:+|CDS|ENSG00000135763|unk|total|mutant (ssRNA)
RNA: GGGAGUUCUACAGUCCGACGAUCAUUUUAUAAGAAAAAGCUUGAACUGAAGGAAGAUAUUGUUGAAAGGCUUUGGAUCUAUACCGAUAACAUUUUACACCGCAGAAAAUUGCAGAAUCUCCUCAAGAAUGGAAAGACCAUUAACAACAGAGGAUUGAGCAUCA
B22: ENSG00000198589:be:win_3801|CDS|ENSG00000198589|bound_else_gene|NA|bound_elsewhere_windowed (ssRNA)
RNA: GGGAGUUCUACAGUCCGACGAUCUCAACCUCAUCGACAUGUGCUUGAGAUAUCAAGGCAACAUGAGCAGCCAGGGCAAGGAAUAGCACCAGAUGCAGUUAAUGGACAAAGGAGGGAUUCCAGAUCUACUGUGUUUCGUAUUCCCAACAGAGGAUUGAGCAUCA

target: MSI1 full-length (mouse, UniProt Q61474 1-362); assay: nsRBNS (natural sequence RNA bind-n-seq); RBNS binding buffer (assumed for nsRBNS): 25 mM Tris pH 7.5, 150 mM KCl, 3 mM MgCl2, 0.01% Triton X-100, 500 ug/ml BSA, 20 U/ml SUPERase-In, 4 C; UNK is unkempt and MSI1 is Musashi-1; names of the RNAs are library labels; protein concentration not given here; high values mean tight binding
Sequence of UniProt Q61474 (Q61474 whole entry): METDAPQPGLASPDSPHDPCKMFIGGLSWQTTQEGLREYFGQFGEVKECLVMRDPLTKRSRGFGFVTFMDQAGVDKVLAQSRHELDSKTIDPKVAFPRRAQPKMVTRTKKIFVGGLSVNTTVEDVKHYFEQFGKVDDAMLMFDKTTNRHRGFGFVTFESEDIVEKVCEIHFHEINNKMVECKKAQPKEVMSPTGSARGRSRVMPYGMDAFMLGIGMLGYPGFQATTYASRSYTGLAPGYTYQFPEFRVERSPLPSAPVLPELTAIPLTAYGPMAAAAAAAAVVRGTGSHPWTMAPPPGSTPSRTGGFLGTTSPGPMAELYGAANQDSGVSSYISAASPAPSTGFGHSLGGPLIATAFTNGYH

Binder	binding signal
B1	1.05 enrichment R
B2	6.76 enrichment R
B3	0.281 enrichment R
B4	0.43 enrichment R
B5	0.973 enrichment R
B6	0.386 enrichment R
B7	0.579 enrichment R
B8	0.587 enrichment R
B9	0.397 enrichment R
B10	0.375 enrichment R
B11	0.381 enrichment R
B12	0.283 enrichment R
B13	0.807 enrichment R
B14	0.152 enrichment R
B15	39.3 enrichment R
B16	0.271 enrichment R
B17	0.739 enrichment R
B18	0.367 enrichment R
B19	0.396 enrichment R
B20	0.307 enrichment R
B21	0.623 enrichment R
B22	0.446 enrichment R

Reference: PMC12136788
